Screen size: about 44,000 compounds; about 340 (0.77%) were called active. Inconclusive results (about 5%) are left out. Calls follow the shape of the dose curve; as a rule, active = well fitted inhibition curve with a large enough effect; inconclusive = small, poorly fitted or top-dose-only effect; inactive = flat fitted curve, though single readings scatter. This is one part of the list.
assay: Acumen qHTS Assay for Inhibitors of the mTORC1 Signaling Pathway in MEF (Tsc2-/-, p53-/-) Cells: Sytravon; details: phospho-rpS6 immunofluorescence/PI, 24 h; series mostly up to 38.3 µM; activity change, negative = inhibition: at the top concentration; also: nearly all actives have a fitted effect of over 50% in size;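 as to activity change, negative = inhibition: plate controls were DMSO for no effect and rapamycin for full effect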
How it was run: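 Plate MEFs (Tsc2-/-, p53-/-, empty vector) in DMEM/10% FBS; after 24 h add compound, incubate 24 h at 37 degree Celsius; fix in PFA/TX-100, block, stain phospho-rpS6 and 10 uM PI; scan at 488 nm; report % positive cells.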
Potency is read from the fitted curve at half-maximal effect.

| SMILES | activity change, negative = inhibition | Potency |
| --- | --- | --- |
| COc1ccc(OC)c(C2Nc3c(C)cc(C)cc3-c3cc(C)nn32)c1 (stereo unspecified) | inactive: -13.1% | – |
| CCn1c(=O)cc(OCC(=O)N(C)c2ccc(OC)cc2)c2ccccc21 | inactive: -14.8% | – |
| O=C(NCc1ccc(Cl)cc1)C1=Cc2cc(Br)ccc2OC1 | inactive: 1.06% | – |
| CCOc1ccc(NC(=O)CN2C(=O)C(c3ccc(Cl)cc3)=NC2(C)C)cc1 | inactive: 2.44% | – |
| CCC(=O)N1CCc2cc(Br)cc(S(=O)(=O)N3CCCC(C(=O)Nc4cc(C)ccc4OC)C3)c21 (stereo unspecified) | inactive: -8.74% | – |
| Cc1ccc(Cl)cc1N1CCN(C(=O)c2cc3ccc4cccnc4c3[nH]2)CC1 | inactive: -24% | – |
| COc1cc(OC)c(NC(=O)c2c(N3CCCC3=O)c3cc(C)ccc3n2C)cc1Cl | inactive: 0% | – |
| COc1ccc(Cl)cc1C(=O)Nc1ccc2nc(Nc3cccc(Cl)c3)cc(C)c2c1 | inactive: -1.94% | – |
| CCCc1ccc(S(=O)(=O)N2CCC(c3nnc(-c4cccc(C)c4)o3)CC2)cc1 | inactive: -2.6% | – |
| CCOc1ccccc1NC(=O)Cn1ncc2c([nH]c3ccccc32)c1=O | inactive: -1.18% | – |
| CCn1c(=O)c2cc(C(=O)NCCCN3CCN(c4ccc(F)cc4)CC3)sc2c2ccccc21 | inactive: -2.77% | – |
| Cc1ccccc1OCC(=O)Nc1nnc(S(=O)(=O)N2CCCC2)s1 | inactive: 2.76% | – |
| CC(C)Oc1ccc(CNC(=O)c2ccc3c(c2)nc2n3CCCCC2)cc1 | inactive: -6.93% | – |
| COc1ccc(C2=C(C)C(=O)N(Cc3ccc(C(=O)NC(C)c4ccccc4)cc3)S2(=O)=O)cc1 (stereo unspecified) | inactive: -5.75% | – |
| CCOc1ccc(N2CC(c3nc4ccccc4n3CCCCOc3ccc(OC)cc3)CC2=O)cc1 (stereo unspecified) | inactive: -1.51% | – |
| Cc1cc(=O)n2nc(N3CCC(C(=O)Nc4c(C)cccc4C)CC3)sc2n1 | inactive: -13.2% | – |
| Cc1cccc(N2C(=O)CSC23C(=O)N(CC(=O)Nc2cccc(Cl)c2)c2ccccc23)c1 (stereo unspecified) | inactive: -4.66% | – |
| CC1CCN(S(=O)(=O)c2cc3c4c(c2)C(C)C(=O)N4CCC3)CC1 (stereo unspecified) | inactive: -0.043% | – |
| O=C(NC1CCCCCC1)C1c2ccccc2C(=O)N1Cc1ccc(F)cc1 (stereo unspecified) | inactive: -3.73% | – |
| COc1ccccc1CCN1COc2c(cc3c(C)c(C)c(=O)oc3c2C)C1 | inactive: -10.7% | – |
| COc1ccc(CNC(=O)CN2C(=O)CSc3ccc(S(=O)(=O)N(C)C)cc32)cc1 | inactive: -19.6% | – |

| SMILES | activity change, negative = inhibition | Potency |
| --- | --- | --- |
| CCOC(=O)c1cc(C)n(CC2CCC(C(=O)Nc3cccc(Cl)c3)CC2)c1C (stereo unspecified) | inactive: 2.11% | – |
| CCN(CC)c1ccc(NC(=O)CN2CCN(c3ccccc3OC)CC2)cc1 | inactive: 13.4% | – |
| Oc1c(C(c2ccccc2)N2CCOCC2)sc2nc(-c3ccco3)nn12 (stereo unspecified) | inactive: -0.391% | – |
| Cc1cc(C)cc(NC(=O)c2sc3nc4n(c(=O)c3c2C)N=C(c2ccccc2)CS4)c1 | inactive: 0.917% | – |
| Nc1c(C(=O)Nc2cccc(F)c2)nnn1-c1cccc(C(F)(F)F)c1 | inactive: -1.12% | – |
| CCOCCCNc1nc2c(S(=O)(=O)c3ccc(CC)cc3)nnn2c2ccc(Cl)cc12 | inactive: 0.502% | – |
| O=C(Cn1ncc2c3ccccc3n(Cc3cccc(Cl)c3)c2c1=O)NCCCN1CCCCC1 | inactive: 2.82% | – |
| Cc1ccc(CNC(=O)Cn2c(=O)cc(C)c3c(C)nn(-c4cccc(F)c4)c32)cc1 | inactive: -9.92% | – |
| Cc1ccc(C)c(N2CCN(S(=O)(=O)c3ccc(-c4cnc(C5CC5)o4)cc3)CC2)c1 | inactive: 13.2% | – |
| CCOc1ccccc1CN1CCc2nc(N3CCN(C)CC3)ncc2C1 | inactive: 12.3% | – |
| Cc1ccc(NC(=O)CSc2nc(-c3cccs3)nc3cc(=O)[nH]n23)cc1C | inactive: -3.77% | – |
| COc1ccc(-c2cn3cccnc3n2)cc1NC(=O)Nc1cc(C)ccc1C | inactive: -17.7% | – |
| O=C(NCCc1ccccc1)C1CCN(Cc2cc3ccccc3n2Cc2ccccc2)CC1 | inactive: -16.7% | – |
| CN1C(C(=O)c2ccccc2)=C(NC(=O)c2ccc(F)cc2)c2ccccc2S1(=O)=O | inactive: -17% | – |
| COc1ccc(COC(=O)C2=C(C)NC(=O)CC2c2cccc(Cl)c2Cl)cc1 (stereo unspecified) | inactive: -24.8% | – |
| CCOc1ccc(-c2cc(C(=O)NC(C)c3ccccc3)c3ccccc3n2)cc1 (stereo unspecified) | inactive: 5.19% | – |
| O=C(Nc1ccc(C(=O)N2CCN(c3ccccc3F)CC2)cc1)c1nsc2ccccc12 | inactive: 6.18% | – |
| O=C(NCCc1ccc(Cl)cc1)c1ccc2c(c1)nc1n2CCOC1 | inactive: 3.52% | – |
| CN(C)CCN(Cc1ccco1)C(=O)c1cc2c(s1)-c1ccccc1OC2 | – | active: 5.21 µM |
| COc1ccc(-c2onc(C)c2C)cc1S(=O)(=O)Nc1cccc(C#N)c1 | inactive: 2.81% | – |
| CCOC(=O)N1CCc2c(sc3c2c(=O)n(-c2ccc(F)cc2)c(=O)n3CC(=O)c2ccc(Cl)cc2)C1 | inactive: -14.6% | – |

| SMILES | activity change, negative = inhibition | Potency |
| --- | --- | --- |
| Cc1cccc(C(=O)NC2(C(F)(F)F)N=C(c3ccccc3)N(C3CCCCC3)C2=O)c1 (stereo unspecified) | inactive: 1.23% | – |
| CCc1ccc(NS(=O)(=O)c2ccc(-c3cc(C)no3)cc2)cc1 | inactive: -20.3% | – |
| CC(=O)C1=C(c2ccc(F)cc2)N(C(C)=O)n2c(nnc2C2CCCCC2)S1 | inactive: -5.24% | – |
| CCOc1ccc(C(=O)NCC(c2ccc(Cl)cc2)N2CCCCC2)cc1 (stereo unspecified) | inactive: -2.52% | – |
| Cc1cc(C)c(NC(=O)C(C)n2c(=O)cc(-c3ccccc3)c3c(C)nn(C)c32)c(C)c1 (stereo unspecified) | inactive: -0.925% | – |
| CCCCNc1ccc(-c2nc(-c3ccccn3)no2)cc1[N+](=O)[O-] | inactive: 1.33% | – |
| COc1ccc(-c2nnn3c2nc(NCc2ccc(C)cc2)c2ccccc23)cc1 | inactive: 7.41% | – |
| CCCNC(=O)CSc1c(CCC)cnc2c1c(=O)n(C)c(=O)n2C | inactive: 0.35% | – |
| O=C(CN1C(=O)C2(SCC(=O)N2c2cccc(F)c2)c2ccccc21)NCCc1ccccc1 (stereo unspecified) | inactive: -0.992% | – |
| CCOC(=O)c1cnc(N2CCN(c3cccc(C)c3C)CC2)c2ccccc12 | inactive: 0.721% | – |
| O=C(NCCc1csc(-c2cccnc2)n1)c1ccccc1 | inactive: 2.23% | – |
| Cc1ccccc1C(=O)OCc1cc(=O)n2nc(C3CCCCC3)sc2n1 | inactive: -18.2% | – |
| Cc1nnc2c(N3CCN(c4ccc(F)cc4)CC3)nc3ccc(C(=O)c4ccccc4)cc3n12 | inactive: 0.078% | – |
| CCOC(=O)c1cc(-c2ccc(OC)c(S(=O)(=O)NCc3ccccc3Cl)c2)on1 | inactive: 4.23% | – |
| CC1CCCCN1CCCNC(=O)CN1C(=O)CSc2ccc(S(=O)(=O)N3CCOCC3)cc21 (stereo unspecified) | inactive: 9.84% | – |
| COc1ccc(OC)c(NC(=O)Cn2ccn(-c3ccc(OC)c(OC)c3)c(=O)c2=O)c1 | inactive: 7.14% | – |
| CCc1ccc(NC(=O)Nc2ccccc2OCc2cc(=O)n3ccccc3n2)cc1 | inactive: 3.08% | – |
| CCOC(=O)c1c(NC(=O)CCCOc2ccc(Cl)cc2)sc2c1CCC2 | inactive: 11.8% | – |
| COc1ccc(OC)c(-c2noc(N3CCN(c4ccc(C(C)=O)cc4)CC3)n2)c1 | inactive: -5.25% | – |
